From the supplement of paper PMC10369915 come the findings set out here.

Some of the results follow. Rule as the data show it: active = 3.2 or more and inactive = the rest. The signal is at background level for most entries.

Sequences and labels used below:
B1: SOX10_Y171_P175A (peptide)
chain: KDHPDYKYQAR
B2: SOX10_Y171_P175R_YF (peptide)
chain: KDHPDYKFQRR
B3: SMG1_Y2254_G2258S (peptide)
chain: PSELYYSKISP
B4: SOX10_Y171_P175A_YF (peptide)
chain: KDHPDYKFQAR
B5: SMCHD1_Y283_YF (peptide)
chain: NKEAIYSGFIR
B6: SLCO1B1_Y645_YF (peptide)
chain: FIILIYAMKKK
B7: SOX11_Y113_Y116C (peptide)
chain: KHMADYPDCKY
B8: SOS1_Y618_YF (peptide)
chain: LTFHMYADPNF
B9: SMG1_Y2254 (peptide)
chain: PSELYYSKIGP
B10: SOS1_Y618_F623I (peptide)
chain: LTYHMYADPNI
B11: SORL1_Y136_Y141C (peptide)
chain: KSSDVYVSYDC
B12: SORBS1_Y79 (peptide)
chain: RASSSYRETPS
B13: SOX10_Y171 (peptide)
chain: KDHPDYKYQPR
B14: SMC1A_Y714_R711Q (peptide)
chain: QMQLKYSQSDL
B15: SMAD2_Y128_R133C (peptide)
chain: LPHVIYCRLWC
B16: SMARCC2_Y324 (peptide)
chain: GPSTPYTKSKR
B17: SLIT2_Y776_N775S (peptide)
chain: KELSSYKHLTL
B18: SOX11_Y113 (peptide)
chain: KHMADYPDYKY
B19: SMARCE1_Y73_Y73S (peptide)
chain: KPLMPSMRYSR
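Also: displayed peptides selected on beads carrying the immobilized SH2 domain, with library peptides lacking any tyrosine serving as negative controls.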

The target in the first test is SHP2 C-SH2 domain E139D. Briefly: enrichment score (SH2-bound / input frequency) (ratio); bacterial display of known human phosphotyrosine sites (pTyr-Var adds point mutants) read by sequencing; higher = stronger binding; tyrosines were phosphorylated by kinases first. Conditions: peptide library: pTyr-Var.
Regarding B1, the enrichment score was inactive: 0.876.

Take B2: the enrichment score is inactive: 0.865.

As for B3, the enrichment score was inactive: 1.37.

In the case of B4, the enrichment score is inactive: 0.988.

As to B5, the enrichment score was inactive: 0.784.

B6: the enrichment score was inactive: 1.

Turning to B7, the enrichment score was inactive: 0.373.

For B8, the enrichment score is inactive: 1.74.

Consider B9, for which the enrichment score was inactive: 1.14.

For B10, the enrichment score is inactive: 1.31.

Consider B11, for which the enrichment score was inactive: 0.671.

For the molecule B12, the enrichment score is inactive: 0.501.

Take B13: the enrichment score is inactive: 0.716.

B14: the enrichment score is inactive: 0.777.

B15: the enrichment score is inactive: 2.91.

On to B16, for which the enrichment score was inactive: 0.555.

Consider B17, for which the enrichment score was inactive: 0.774.

With B18, the enrichment score was inactive: 0.694.

As to B19, the enrichment score was inactive: 0.17.

The next test concerns the target SHP2 C-SH2 domain wild-type. Described as above. The settings on record: peptide library: pTyr-Var.
Take B1: the enrichment score is inactive: 1.14.

B2: the enrichment score was inactive: 0.956.

Turning to B3, the enrichment score was inactive: 3.04.

Turning to B4, the enrichment score is inactive: 1.88.

Take B5: the enrichment score is inactive: 0.848.

With B6, the enrichment score was inactive: 0.543.

As to B7, the enrichment score is inactive: 0.955.

As to B8, the enrichment score was inactive: 1.82.

With B9, the enrichment score is inactive: 1.72.

Regarding B10, the enrichment score was inactive: 1.1.

Consider B11, for which the enrichment score is inactive: 0.699.

As to B12, the enrichment score is inactive: 0.61.

For B13, the enrichment score is inactive: 0.741.

B14: the enrichment score was inactive: 0.465.

As to B15, the enrichment score was inactive: 2.42.

For the molecule B16, the enrichment score is inactive: 0.466.

B17: the enrichment score is inactive: 0.541.

For the molecule B18, the enrichment score was inactive: 0.665.

B19: the enrichment score is inactive: 0.289.

For another test, the target named is SHP2 N-SH2 domain L43F. The description is as above. Conditions: peptide library: pTyr-Var.
Take B1: the enrichment score is inactive: 0.778.

As for B2, the enrichment score was inactive: 0.777.

On to B3, for which the enrichment score was inactive: 2.3.

B4: the enrichment score is inactive: 0.857.

Turning to B5, the enrichment score was inactive: 0.912.

For the molecule B6, the enrichment score was inactive: 0.374.

In the case of B7, the enrichment score was inactive: 2.04.

Regarding B8, the enrichment score was inactive: 1.85.

Turning to B9, the enrichment score is inactive: 1.42.

B10: the enrichment score is inactive: 1.33.

Consider B11, for which the enrichment score is inactive: 0.713.

Regarding B12, the enrichment score is inactive: 0.51.

Turning to B13, the enrichment score was inactive: 0.617.

As for B14, the enrichment score is inactive: 0.529.

Turning to B15, the enrichment score is inactive: 2.58.

For B16, the enrichment score was inactive: 0.538.

As to B17, the enrichment score was inactive: 0.828.

For B18, the enrichment score is inactive: 0.798.

In the case of B19, the enrichment score is inactive: 0.244.

The next test addresses SHP2 N-SH2 domain T42A. The description is as above. Conditions: peptide library: pTyr-Var.
Regarding B1, the enrichment score was inactive: 0.908.

In the case of B2, the enrichment score was inactive: 0.814.

Regarding B3, the enrichment score is inactive: 1.98.

With B4, the enrichment score was inactive: 0.797.

For the molecule B5, the enrichment score was inactive: 0.81.

B6: the enrichment score is inactive: 0.861.

As to B7, the enrichment score is inactive: 0.377.

For the molecule B8, the enrichment score was inactive: 2.81.

For B9, the enrichment score is inactive: 2.01.

B10: the enrichment score was inactive: 2.42.

As to B11, the enrichment score is inactive: 0.614.

Take B12: the enrichment score was inactive: 0.557.

For the molecule B13, the enrichment score is inactive: 0.577.

For the molecule B14, the enrichment score was inactive: 0.603.

For the molecule B15, the enrichment score was inactive: 3.04.

As to B16, the enrichment score is inactive: 0.534.

For B17, the enrichment score was inactive: 0.751.

On to B18, for which the enrichment score is inactive: 0.836.

Consider B19, for which the enrichment score was inactive: 0.29.

For a further test, the target named is SHP2 N-SH2 domain T52S. The description is as above. The settings on record: peptide library: pTyr-Var.
Regarding B1, the enrichment score was inactive: 0.816.

With B2, the enrichment score is inactive: 0.915.

Turning to B3, the enrichment score was inactive: 1.75.

On to B4, for which the enrichment score was inactive: 0.711.

Take B5: the enrichment score was inactive: 0.866.

On to B6, for which the enrichment score was inactive: 0.761.

With B7, the enrichment score is inactive: 0.602.

B8: the enrichment score is inactive: 2.21.

Regarding B9, the enrichment score is inactive: 0.803.

For the molecule B10, the enrichment score is inactive: 1.19.

With B11, the enrichment score was inactive: 0.698.

Take B12: the enrichment score was inactive: 0.451.

Consider B13, for which the enrichment score was inactive: 0.672.

With B14, the enrichment score is inactive: 0.42.

On to B15, for which the enrichment score is inactive: 2.89.

Take B16: the enrichment score was inactive: 0.485.

Turning to B17, the enrichment score is inactive: 0.775.

For B18, the enrichment score was inactive: 0.627.

With B19, the enrichment score was inactive: 0.228.

Another test concerns the target SHP2 N-SH2 domain wild-type. The test is described as above. Conditions: peptide library: pTyr-Var.
Regarding B1, the enrichment score is inactive: 0.962.

Take B2: the enrichment score is inactive: 0.81.

B3: the enrichment score was inactive: 1.75.

With B4, the enrichment score was inactive: 0.898.

On to B5, for which the enrichment score is inactive: 0.818.

Turning to B6, the enrichment score was inactive: 0.826.

Regarding B7, the enrichment score was inactive: 0.463.

Consider B8, for which the enrichment score was inactive: 1.94.

B9: the enrichment score is inactive: 1.19.

For the molecule B10, the enrichment score was inactive: 1.12.

In the case of B11, the enrichment score is inactive: 0.657.

For the molecule B12, the enrichment score is inactive: 0.507.

Turning to B13, the enrichment score was inactive: 0.697.

B14: the enrichment score is inactive: 0.704.

On to B15, for which the enrichment score is inactive: 2.17.

In the case of B16, the enrichment score was inactive: 0.496.

Take B17: the enrichment score is inactive: 0.739.

With B18, the enrichment score is inactive: 0.82.

With B19, the enrichment score is inactive: 0.34.
